Data: publication PMC4336329 (PLoS ONE, 2015)
Out of some 310,000 compounds screened, about 14,000 (4.5%) showed an effect of 50% or more. The effect is printed as a negative number. The list shows a part of the results.

The compounds below were run against human ether-à-go-go-related gene (hERG) potassium channel (human, UniProt Q12809) (assay: primary screen, population patch clamp on CHO cells stably expressing hERG).
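Also: peak tail current of the secondary pulse compared with the same well before compound.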

Chain of human ether-à-go-go-related gene (hERG) potassium channel (Q12809 whole entry, looked up): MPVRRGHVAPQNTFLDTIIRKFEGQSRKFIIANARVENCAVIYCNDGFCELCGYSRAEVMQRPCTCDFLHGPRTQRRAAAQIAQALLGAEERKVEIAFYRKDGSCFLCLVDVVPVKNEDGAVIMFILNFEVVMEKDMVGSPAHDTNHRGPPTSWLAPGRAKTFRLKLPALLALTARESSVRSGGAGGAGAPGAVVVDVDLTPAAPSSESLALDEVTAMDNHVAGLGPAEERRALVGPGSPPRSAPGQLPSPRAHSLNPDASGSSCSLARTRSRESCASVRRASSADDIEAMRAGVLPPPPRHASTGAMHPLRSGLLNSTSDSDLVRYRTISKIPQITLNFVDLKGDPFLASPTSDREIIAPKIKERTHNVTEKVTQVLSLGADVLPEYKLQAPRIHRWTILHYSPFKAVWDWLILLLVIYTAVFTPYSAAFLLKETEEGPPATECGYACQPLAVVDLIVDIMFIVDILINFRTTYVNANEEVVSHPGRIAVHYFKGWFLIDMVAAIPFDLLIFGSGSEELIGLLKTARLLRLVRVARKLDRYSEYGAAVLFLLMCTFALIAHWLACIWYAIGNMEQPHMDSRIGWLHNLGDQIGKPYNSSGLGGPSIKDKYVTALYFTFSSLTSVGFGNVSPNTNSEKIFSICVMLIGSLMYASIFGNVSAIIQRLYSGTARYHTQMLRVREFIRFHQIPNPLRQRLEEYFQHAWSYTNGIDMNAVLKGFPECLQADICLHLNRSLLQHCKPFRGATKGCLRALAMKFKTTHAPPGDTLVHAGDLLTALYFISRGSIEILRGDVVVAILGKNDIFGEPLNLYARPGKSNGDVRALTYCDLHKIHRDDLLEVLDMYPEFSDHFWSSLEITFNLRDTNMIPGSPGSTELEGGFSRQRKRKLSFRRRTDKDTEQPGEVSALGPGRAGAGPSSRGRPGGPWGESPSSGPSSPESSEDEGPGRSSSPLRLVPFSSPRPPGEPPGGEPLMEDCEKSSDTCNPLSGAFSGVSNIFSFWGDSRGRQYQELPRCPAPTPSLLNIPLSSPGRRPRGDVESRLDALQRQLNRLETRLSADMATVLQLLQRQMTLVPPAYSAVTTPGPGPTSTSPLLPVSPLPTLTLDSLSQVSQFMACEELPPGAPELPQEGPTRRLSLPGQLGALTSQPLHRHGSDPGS

Row | Structure (SMILES) | hERG current change (%, negative = inhibition) at 10uM
1 | CN(C)C(CNC(=O)c1ccc2ccccc2n1)c1ccccc1 (centres unmarked) | 11.1%
2 | N#C/C(C(=O)NCc1ccco1)=C1/SC(Cc2ccc(Cl)cc2)C(=O)N1c1ccccc1 (centres unmarked) | 0.854%
3 | CCOc1cccc2sc(=NC(=O)c3ccco3)n(CC(=O)OC)c12 | 14.7%
4 | c1nc(NCCN2CCOCC2)c2sc3nc(N4CCOCC4)c4c(c3c2n1)CCC4 | -28%
5 | O=S(=O)(N/N=C/c1c(F)cccc1Cl)c1ccccc1 | 4.31%
6 | COc1cccc(C(=O)O/N=C(\N)c2ccncc2)c1OC | 7.84%
7 | O=C(/C=C/c1ccco1)Nc1cccc(-c2nc3ccccc3[nH]2)c1 | -29.1%
8 | COc1ccc(NC(=O)CSc2nc3c([nH]c4ccccc43)c(=O)n2C)cc1 | 0.41%
9 | O=C(NNc1cccc(Cl)c1)c1cccnc1Oc1ccccc1 | -8.21%
10 | COc1cccc(CNC(=O)c2ccccc2SCC(=O)N2CCCC2)c1 | -22.7%
11 | Cc1c(CNC(=O)C2CCC(=O)N(CCc3ccccc3)C2)cnn1C (centres unmarked) | 12.2%
12 | CCOC(=O)N1CCC(NC(=O)C2CCCN(Cc3nc(-c4cccc(C)c4)oc3C)C2)CC1 (centres unmarked) | -63.6%
13 | CCOC(=O)c1cc(-c2ccc(OC(F)F)cc2)nc2c1c(=O)[nH]c(=O)n2C | -19.1%
14 | CCOc1ccc(-c2c(C(=O)N/N=C/c3ccncc3)nnn2-c2nonc2N)cc1 | 9.16%
15 | CCOC(=O)C(c1ccccc1)C(Nc1cc(C(F)(F)F)cc(C(F)(F)F)c1)c1ccccn1 (centres unmarked) | 10.8%
16 | CN1CCN(S(=O)(=O)c2ccc(N(C)Cc3ccc(OC(F)F)cc3)c([N+](=O)[O-])c2)CC1 | -60.8%
17 | CN(CC(=O)Nc1cccc(F)c1)C(=O)c1ccncc1 | 4.28%
18 | O=C(OCc1ccc(Br)cc1)c1cccc(-c2nnc(-c3ccccc3)o2)c1 | 19.9%
19 | COc1ccccc1NC(=O)Nc1ccccc1C(=O)NCCCN1CCOCC1 | 11%
20 | NC(=O)C1CCCNC1 (centres unmarked) | 9.24%
21 | COc1ccc(NC(=O)CN(C)C(=O)c2n[nH]c3ccccc23)cc1 | 14.6%
22 | COc1ccc(CCNC(=O)c2cc(-c3ccncc3)nc3ccc(S(=O)(=O)N4CCOCC4)cc23)cc1OC | -11.4%

Row | Structure (SMILES) | hERG current change (%, negative = inhibition) at 10uM
23 | C/C(CC(=O)NC1CCCCC1)=N\NC(=O)c1ccccn1 | 19.9%
24 | CCc1nnc(NC(=O)CS(=O)(=O)Cc2ccccc2)s1 | 3.84%
25 | COc1cc(/C=C2/C(=O)NN(c3ccc(Cl)cc3)C2=O)cc(OC)c1O | 3.98%
26 | O=C(/C=C/c1ccccc1Cl)c1cccnc1 | -3.64%
27 | Cc1cccc(NC(=O)C(C)SCc2ccccc2)c1 (centres unmarked) | -2.92%
28 | COc1ccc(S(=O)(=O)N2CCN(C(=O)CCc3c[nH]c4ccccc34)CC2)cc1 | -22.6%
29 | CC(C)C(NS(=O)(=O)c1ccc2c(c1)C(C)(C)C(=O)N2C)C(=O)NCc1ccc(F)cc1 (centres unmarked) | -7.51%
30 | CCCCC(=O)Nc1cccc(NC(=S)NC(=O)COc2ccccc2Cl)c1 | 12.1%
31 | CCOC(=O)c1c(-c2ccc(-c3ccccc3)cc2)csc1NC(=O)CCC(=O)O | 6.53%
32 | COc1ccccc1-c1cc(C(=O)NCCCN2CCOCC2)no1 | -28%
33 | Cc1ccc(NC(=O)N2CCC(=O)N2)cc1 | 25.1%
34 | Brc1ccccc1OCCCn1cnc2ccccc21 | -17.5%
35 | O=C(Cc1ccc(Cl)cc1Cl)OCC(=O)N1CCN(C(=O)c2ccco2)CC1 | -57.6%
36 | O=C(Nc1cccc2[nH]ncc12)NS(=O)(=O)c1ccccc1 | 10.7%
37 | O=C1CC(c2ccccc2)CC(O)=C1C=NCCc1ccccc1 (centres unmarked) | 6.57%
38 | O=C(CNC(=O)c1cccc(F)c1)N/N=C/c1ccc(O)c([N+](=O)[O-])c1 | 9.59%
39 | COc1ccc(/C=C2\CCC(C3CCCC3)C2=O)cc1Cn1cccn1 (centres unmarked) | -35.7%
40 | CC(C)(C)C(=O)Oc1cccc(Nc2ncnc3ccccc23)c1 | 9.76%
41 | Cc1ccc2c(c1)N(C(=O)c1ccco1)C(C)(C)c1ssc(=S)c1-2 | -7.06%
42 | COc1ccc(-c2noc(CCC(N)=O)n2)cc1OC | 3.66%
43 | O=C(CSc1ccccc1)Nc1ccc2c(c1)OCO2 | 15.5%
44 | Cc1cc(=O)nc2c3ccccc3n(CC(=O)NC3CCCCC3)n12 | 10.3%
